Source: PMC4267404, “Trihelix transcription factor GT-4 mediates salt tolerance via interaction with TEM2 in Arabidopsis”
No constants are given. Whether binding was seen depends on the method and setting. For part of these data: In cells and extracts the contact can be indirect. Some results given as binding are weak or reduced against the parent protein; the word gives no strength. Where a sequence is shown, tags or fusion partners need not be part of it.

By UniProt entry, the sequences of proteins in these tests, tags left out.
UniProt P82280: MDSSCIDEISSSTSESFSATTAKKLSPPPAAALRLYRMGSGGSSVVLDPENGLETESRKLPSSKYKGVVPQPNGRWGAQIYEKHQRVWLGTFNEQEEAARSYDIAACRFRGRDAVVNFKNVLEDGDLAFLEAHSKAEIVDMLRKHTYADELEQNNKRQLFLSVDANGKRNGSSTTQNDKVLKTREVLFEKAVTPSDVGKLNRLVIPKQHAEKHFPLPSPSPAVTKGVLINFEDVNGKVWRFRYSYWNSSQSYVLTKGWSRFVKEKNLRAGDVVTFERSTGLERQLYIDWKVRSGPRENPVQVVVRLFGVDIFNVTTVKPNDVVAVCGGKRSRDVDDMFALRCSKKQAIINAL

Key:
[1] = target: T1, GT-4-YFPc (GT-4 fused to the C-terminal part of yellow fluorescent protein) (Arabidopsis) (UniProt Q9LU92); test: split reporter; BiFC with YFP halves, constructs co-transformed into Arabidopsis protoplasts, confocal microscopy 16 h later
T1 sequence: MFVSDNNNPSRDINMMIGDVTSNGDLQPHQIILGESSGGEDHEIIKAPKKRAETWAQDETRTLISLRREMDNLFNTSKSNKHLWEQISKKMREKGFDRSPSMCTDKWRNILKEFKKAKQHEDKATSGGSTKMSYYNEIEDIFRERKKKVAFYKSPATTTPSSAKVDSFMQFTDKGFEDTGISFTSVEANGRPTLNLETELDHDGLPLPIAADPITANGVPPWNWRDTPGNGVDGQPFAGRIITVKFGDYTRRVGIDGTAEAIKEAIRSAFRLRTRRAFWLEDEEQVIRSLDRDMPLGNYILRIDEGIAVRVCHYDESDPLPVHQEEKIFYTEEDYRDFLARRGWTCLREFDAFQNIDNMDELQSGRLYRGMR

[2] = target: T2, BD-GT-4 (GT-4 fused to the GAL4 DNA-binding domain, pGBKT7-GT-4) (Arabidopsis) (UniProt Q9LU92); test: two-hybrid; pairwise mating of BD and AD fusions; growth on DDO and QDO/X/A plates for 3 d, blue colour means a positive interaction
T2 sequence: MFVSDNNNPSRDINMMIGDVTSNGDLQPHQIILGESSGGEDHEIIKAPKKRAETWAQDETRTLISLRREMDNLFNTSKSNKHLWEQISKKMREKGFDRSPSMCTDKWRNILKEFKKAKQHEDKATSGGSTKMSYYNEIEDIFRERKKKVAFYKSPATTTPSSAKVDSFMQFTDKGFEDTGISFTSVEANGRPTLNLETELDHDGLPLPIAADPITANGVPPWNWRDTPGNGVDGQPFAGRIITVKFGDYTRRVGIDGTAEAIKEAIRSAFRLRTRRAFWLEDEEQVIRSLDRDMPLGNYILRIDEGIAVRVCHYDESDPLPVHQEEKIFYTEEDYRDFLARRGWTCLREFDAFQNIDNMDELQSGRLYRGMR

[3] = target: T3, BD-GT-4C (C-terminal end of GT-4 fused to the GAL4 DNA-binding domain) (Arabidopsis) (UniProt Q9LU92); test: as above
T3 sequence: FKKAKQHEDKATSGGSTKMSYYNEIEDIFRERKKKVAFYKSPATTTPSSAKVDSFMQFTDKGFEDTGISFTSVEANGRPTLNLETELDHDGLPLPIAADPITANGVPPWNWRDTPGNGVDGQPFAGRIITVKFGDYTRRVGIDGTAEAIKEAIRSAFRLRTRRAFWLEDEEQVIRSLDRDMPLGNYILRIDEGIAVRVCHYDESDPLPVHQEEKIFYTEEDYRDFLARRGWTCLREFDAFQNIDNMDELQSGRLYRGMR

[4] = target: T4, BD-GT-4N (N-terminal end of GT-4 fused to the GAL4 DNA-binding domain) (Arabidopsis) (UniProt Q9LU92); test: as above
T4 sequence: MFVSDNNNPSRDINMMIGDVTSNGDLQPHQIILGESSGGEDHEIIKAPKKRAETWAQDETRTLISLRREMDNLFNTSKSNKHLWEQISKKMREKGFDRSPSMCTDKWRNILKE

[5] = target: Myc-TEM2 (35S-Myc-TEM2) (Arabidopsis) (UniProt P82280); test: co-IP; nuclear proteins from agro-infiltrated tobacco leaves, IP buffer 50 mM Tris-HCl pH 7.6, 150 mM NaCl, 0.5% NP-40, 0.2% Triton X-100, 2 mM EDTA; anti-c-Myc agarose beads overnight at 4 C; western blot with anti-Flag or anti-Myc

With “TEM2-YFPn (TEM2 fused to the N-terminal part of yellow fluorescent protein) (from UniProt P82280 1-352)” as the molecule, how does the binding [1] read?
Its binding is “binds”.

What does the source list for “AD-TEM2 (TEM2 fused to the GAL4 activation domain, pGADT7-TEM2) (from UniProt P82280 1-352)”?
binding [2]: binds; binding [3]: binds; binding [4]: no binding

B1: BD-GT-4 (GT-4 fused to the GAL4 DNA-binding domain, pGBKT7-GT-4) (protein, UniProt Q9LU92 1-372)
chain: MFVSDNNNPSRDINMMIGDVTSNGDLQPHQIILGESSGGEDHEIIKAPKKRAETWAQDETRTLISLRREMDNLFNTSKSNKHLWEQISKKMREKGFDRSPSMCTDKWRNILKEFKKAKQHEDKATSGGSTKMSYYNEIEDIFRERKKKVAFYKSPATTTPSSAKVDSFMQFTDKGFEDTGISFTSVEANGRPTLNLETELDHDGLPLPIAADPITANGVPPWNWRDTPGNGVDGQPFAGRIITVKFGDYTRRVGIDGTAEAIKEAIRSAFRLRTRRAFWLEDEEQVIRSLDRDMPLGNYILRIDEGIAVRVCHYDESDPLPVHQEEKIFYTEEDYRDFLARRGWTCLREFDAFQNIDNMDELQSGRLYRGMR
B1 was tested. Which binding [2] did it give?
The binding was “binds”.

B2: GT-4-Flag (35S-GT-4-Flag) (protein, UniProt Q9LU92 1-372)
chain: MFVSDNNNPSRDINMMIGDVTSNGDLQPHQIILGESSGGEDHEIIKAPKKRAETWAQDETRTLISLRREMDNLFNTSKSNKHLWEQISKKMREKGFDRSPSMCTDKWRNILKEFKKAKQHEDKATSGGSTKMSYYNEIEDIFRERKKKVAFYKSPATTTPSSAKVDSFMQFTDKGFEDTGISFTSVEANGRPTLNLETELDHDGLPLPIAADPITANGVPPWNWRDTPGNGVDGQPFAGRIITVKFGDYTRRVGIDGTAEAIKEAIRSAFRLRTRRAFWLEDEEQVIRSLDRDMPLGNYILRIDEGIAVRVCHYDESDPLPVHQEEKIFYTEEDYRDFLARRGWTCLREFDAFQNIDNMDELQSGRLYRGMR
With B2 as the molecule, how does the binding [5] read?
The binding was “binds”.
